Measurements published in patent US20010044437A1, “Methods for reducing uric acid levels” (priority 2000, published 2001).
The source gives many values for each of these; only a part stands here.

System: serum uric acid
Assay: Serum uric acid during 28-day once-daily oral dosing, placebo-controlled study in 48 subjects (Example 34)
Assay type: in vivo, human
Description: In another study, 48 subjects were divided into four groups, A, B, C and D, and administered the noted amount of the compound of Example 3. Each group was composed of 12 subjects of whom 9 received the compound and 3 received placebo. The non-placebo members of group A received 50 mg of compound, administered orally once a day for 28 days as a single 50 mg tablet. The non-placebo members of group B received 200 mg of compound administered orally once a day for 28 days as a single 200 mg tablet. The non-placebo members of group C received 500 mg of compound administered orally once a day for 28 days as two 50 mg tablets and two 200 mg tablets. The non-placebo members of group D received 800 mg of compound administered orally once a day for 28 days as four 200 mg tablets. The 3 placebo members of each group, received an amount of placebo, as a tablet, equivalent to the amount of test compound—50 mg placebo for group A, 200 mg placebo for group B, 500 mg placebo for group C and 800 mg placebo for group D. Each subject received a single dose of either compound or placebo for 28 days. The subjects were confined at the clinical site beginning the day before dose administration until 72 hours after the final dose administration on Day 28 and returned for an outpatient visit on Day 35.
Uric acid levels were measured prior to beginning the study (screening), on the day immediately prior to commencement of the study (day-1), and then as noted in the table. Hours indicates the time since the last dose was administered. For example, Day 7, 0 hour indicates the time the serum uric acid level at the time the dose was administered and Day 7, 2 hour indicates the uric acid level two hours after the adminstration that day. Further, the Day 30, 60 hour level is the serum uric acid level measured 60 hours (on Day 30) after the last dose was administered on Day 28. The uric acid levels are presented in mg/dL as a mean of all subjects in each group.

O=C(O)Cn1cc(Cc2nc3c(F)c(F)cc(F)c3s2)c2ccccc21 [Example 3, 3-(4,5,7-Trifluorobenzothiazol-2-yl)methyl-indole-N-acetic Acid]
Uric Acid Level (mean of all subjects in each group) (group A 50 mg orally once a day, Day 1 0 Hour): 4.72 mg/dL
Uric Acid Level (mean of all subjects in each group) (group A 50 mg orally once a day, Day 1 0.5 Hour): 4.64 mg/dL
Uric Acid Level (mean of all subjects in each group) (group A 50 mg orally once a day, Day 1 1 Hour): 4.56 mg/dL
Uric Acid Level (mean of all subjects in each group) (group A 50 mg orally once a day, Day 1 2 Hour): 4.40 mg/dL
Uric Acid Level (mean of all subjects in each group) (group A 50 mg orally once a day, Day 1 3 Hour): 4.26 mg/dL
Uric Acid Level (mean of all subjects in each group) (group A 50 mg orally once a day, Day 1 4 Hour): 4.29 mg/dL
Uric Acid Level (mean of all subjects in each group) (group A 50 mg orally once a day, Day 1 6 Hour): 4.26 mg/dL
Uric Acid Level (mean of all subjects in each group) (group A 50 mg orally once a day, Day 14 12 Hour): 3.09 mg/dL
Uric Acid Level (mean of all subjects in each group) (group A 50 mg orally once a day, Day 14 16 Hour): 3.08 mg/dL
Uric Acid Level (mean of all subjects in each group) (group A 50 mg orally once a day, Day 14 24 Hour): 3.57 mg/dL
Uric Acid Level (mean of all subjects in each group) (group A 50 mg orally once a day, Day 21 0 Hour): 3.49 mg/dL
Uric Acid Level (mean of all subjects in each group) (group A 50 mg orally once a day, Day 28 0 Hour): 3.51 mg/dL
Uric Acid Level (mean of all subjects in each group) (group A 50 mg orally once a day, Day 28 0.05 Hour): 3.39 mg/dL
Uric Acid Level (mean of all subjects in each group) (group A 50 mg orally once a day, Day 28 1 Hour): 3.36 mg/dL
Uric Acid Level (mean of all subjects in each group) (group A 50 mg orally once a day, Day 28 2 Hour): 3.28 mg/dL
Uric Acid Level (mean of all subjects in each group) (group A 50 mg orally once a day, Day 28 3 Hour): 3.18 mg/dL
Uric Acid Level (mean of all subjects in each group) (group A 50 mg orally once a day, Day 28 4 Hour): 3.14 mg/dL
Uric Acid Level (mean of all subjects in each group) (group A 50 mg orally once a day, Day 28 6 Hour): 3.48 mg/dL
Uric Acid Level (mean of all subjects in each group) (group A 50 mg orally once a day, Day 28 8 Hour): 3.48 mg/dL
Uric Acid Level (mean of all subjects in each group) (group A 50 mg orally once a day, Day 28 10 Hour): 3.50 mg/dL
Uric Acid Level (mean of all subjects in each group) (group A 50 mg orally once a day, Day 28 12 Hour): 3.46 mg/dL
Uric Acid Level (mean of all subjects in each group) (group A 50 mg orally once a day, Day 28 16 Hour): 3.29 mg/dL
Uric Acid Level (mean of all subjects in each group) (group A 50 mg orally once a day, Day 28 24 Hour): 3.60 mg/dL
Uric Acid Level (mean of all subjects in each group) (group A 50 mg orally once a day, Day 29 48 Hour after last dose on Day 28): 3.76 mg/dL
Uric Acid Level (mean of all subjects in each group) (group A 50 mg orally once a day, Day 30 60 Hour after last dose on Day 28): 3.94 mg/dL
Uric Acid Level (mean of all subjects in each group) (group A 50 mg orally once a day, Day 31 72 Hour after last dose on Day 28): 4.35 mg/dL
Uric Acid Level (mean of all subjects in each group) (group A 50 mg orally once a day, Day 32 96 Hour after last dose on Day 28): 4.96 mg/dL
Uric Acid Level (mean of all subjects in each group) (group A 50 mg orally once a day, Day 33 120 Hour after last dose on Day 28): 4.91 mg/dL
Uric Acid Level (mean of all subjects in each group) (group A 50 mg orally once a day, Day 34 144 Hour after last dose on Day 28): 5.06 mg/dL
Uric Acid Level (mean of all subjects in each group) (group A 50 mg orally once a day, Day 35 (last dose Day 28)): 4.68 mg/dL
Uric Acid Level (mean of all subjects in each group) (group A 50 mg orally once a day, Day-1 (before dosing)): 4.70 mg/dL
Uric Acid Level (mean of all subjects in each group) (group A 50 mg orally once a day, Screening (before dosing)): 4.52 mg/dL
Uric Acid Level (mean of all subjects in each group) (group B 200 mg orally once a day, Day 1 0 Hour): 5.10 mg/dL
Uric Acid Level (mean of all subjects in each group) (group B 200 mg orally once a day, Day 1 0.5 Hour): 5.01 mg/dL
Uric Acid Level (mean of all subjects in each group) (group B 200 mg orally once a day, Day 1 1 Hour): 4.91 mg/dL
Uric Acid Level (mean of all subjects in each group) (group B 200 mg orally once a day, Day 1 2 Hour): 4.58 mg/dL
Uric Acid Level (mean of all subjects in each group) (group B 200 mg orally once a day, Day 1 3 Hour): 4.28 mg/dL
Uric Acid Level (mean of all subjects in each group) (group B 200 mg orally once a day, Day 1 4 Hour): 4.04 mg/dL
Uric Acid Level (mean of all subjects in each group) (group B 200 mg orally once a day, Day 1 6 Hour): 3.83 mg/dL
Uric Acid Level (mean of all subjects in each group) (group B 200 mg orally once a day, Day 14 0.5 Hour): 2.87 mg/dL
Uric Acid Level (mean of all subjects in each group) (group B 200 mg orally once a day, Day 14 1 Hour): 2.82 mg/dL
Uric Acid Level (mean of all subjects in each group) (group B 200 mg orally once a day, Day 14 2 Hour): 2.64 mg/dL
Uric Acid Level (mean of all subjects in each group) (group B 200 mg orally once a day, Day 14 3 Hour): 2.57 mg/dL
Uric Acid Level (mean of all subjects in each group) (group B 200 mg orally once a day, Day 14 4 Hour): 2.53 mg/dL
Uric Acid Level (mean of all subjects in each group) (group B 200 mg orally once a day, Day 14 6 Hour): 2.67 mg/dL
Uric Acid Level (mean of all subjects in each group) (group B 200 mg orally once a day, Day 14 8 Hour): 2.53 mg/dL
Uric Acid Level (mean of all subjects in each group) (group B 200 mg orally once a day, Day 14 10 Hour): 2.52 mg/dL
Uric Acid Level (mean of all subjects in each group) (group B 200 mg orally once a day, Day 14 12 Hour): 2.52 mg/dL
Uric Acid Level (mean of all subjects in each group) (group B 200 mg orally once a day, Day 14 16 Hour): 2.42 mg/dL
Uric Acid Level (mean of all subjects in each group) (group B 200 mg orally once a day, Day 14 24 Hour): 2.96 mg/dL
Uric Acid Level (mean of all subjects in each group) (group B 200 mg orally once a day, Day 21 0 Hour): 3.39 mg/dL
Uric Acid Level (mean of all subjects in each group) (group B 200 mg orally once a day, Day 28 0 Hour): 3.96 mg/dL
Uric Acid Level (mean of all subjects in each group) (group B 200 mg orally once a day, Day 28 0.05 Hour): 3.92 mg/dL
Uric Acid Level (mean of all subjects in each group) (group B 200 mg orally once a day, Day 28 1 Hour): 3.87 mg/dL
Uric Acid Level (mean of all subjects in each group) (group B 200 mg orally once a day, Day 28 2 Hour): 3.70 mg/dL
Uric Acid Level (mean of all subjects in each group) (group B 200 mg orally once a day, Day 28 3 Hour): 3.66 mg/dL
Uric Acid Level (mean of all subjects in each group) (group B 200 mg orally once a day, Day 28 4 Hour): 3.59 mg/dL
Uric Acid Level (mean of all subjects in each group) (group B 200 mg orally once a day, Day 28 6 Hour): 3.92 mg/dL
Uric Acid Level (mean of all subjects in each group) (group B 200 mg orally once a day, Day 28 8 Hour): 3.87 mg/dL
Uric Acid Level (mean of all subjects in each group) (group B 200 mg orally once a day, Day 28 10 Hour): 3.91 mg/dL
Uric Acid Level (mean of all subjects in each group) (group B 200 mg orally once a day, Day 28 12 Hour): 3.77 mg/dL
Uric Acid Level (mean of all subjects in each group) (group B 200 mg orally once a day, Day 28 16 Hour): 3.49 mg/dL
Uric Acid Level (mean of all subjects in each group) (group B 200 mg orally once a day, Day 28 24 Hour): 4.07 mg/dL
Uric Acid Level (mean of all subjects in each group) (group B 200 mg orally once a day, Day 29 48 Hour after last dose on Day 28): 3.40 mg/dL
Uric Acid Level (mean of all subjects in each group) (group B 200 mg orally once a day, Day 30 60 Hour after last dose on Day 28): 3.56 mg/dL
Uric Acid Level (mean of all subjects in each group) (group B 200 mg orally once a day, Day 31 72 Hour after last dose on Day 28): 4.41 mg/dL
Uric Acid Level (mean of all subjects in each group) (group B 200 mg orally once a day, Day 32 96 Hour after last dose on Day 28): 4.83 mg/dL
Uric Acid Level (mean of all subjects in each group) (group B 200 mg orally once a day, Day 33 120 Hour after last dose on Day 28): 4.99 mg/dL
